# Test results as given in PubChem BioAssay AID2546 (National Center for Advancing Translational Sciences (NCATS), 2010).
# Values joined by “and” are separate entries in the source; they are usually repeats but may differ in a detail not shown here. Equal entries are not always repeated. The campaign covered roughly 310,000 compounds. About 11,000 (3.5%) were called active. Inconclusive results, whose numbers are uncertain, are shown with a selection of clear calls. Calls come from the whole dose curve; as a rule, active = well fitted inhibition curve with a large enough effect; inconclusive = small, poorly fitted or top-dose-only effect, or effect the other way; inactive = flat fitted curve, though single readings scatter. Potencies of inconclusive entries are doubtful fits and often do not repeat.
# Experiment: VP16 counterscreen qHTS for inhibitors of ROR gamma transcriptional activity;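 note: Gal4-VP16 expression switched on by copper sulfate through the metallothionein promoter; nearly all actives have a fitted effect of over 50% in size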
# Details: Drosophila S2 Gal4-VP16 UAS-luciferase, luminescence, 20 h; activity, negative = inhibition: at 53.6 µM (top of the series)
# % is set by controls: 0 for no effect and ±100 for the full control effect; potency is the fitted concentration of half-maximal effect; tags give direction and shape of the fitted curve.
Compound,Potency,"activity, negative = inhibition"
COc1cccc(Nc2ccc(C(=O)O)cc2N)c1,"inconclusive: 5.01 µM [inhibitor, full curve]",
O=C(CN(C(=O)CCC(=O)Nc1nccs1)C1CCCC1)NCc1ccc2c(c1)OCO2,,inactive: -4.23%
COc1ccc2nc(Nc3ccc4c(c3)OCO4)sc2c1,"inconclusive: 5.62 µM [inhibitor, single point]",
C/C(=N\NC(=O)C(C)n1nc(C)c([N+](=O)[O-])c1C)c1ccccc1O (stereo unspecified),active: 0.178 µM,
CC(=O)OCC[C@H](NS(=O)(=O)OCC(Cl)(Cl)Cl)c1ccccc1,,inactive: -4.48%
CCOc1cc2c3c(c1)C1(Nc4ccccc4S1)C(=O)N3C(C)(C)CC2C (stereo unspecified),,inactive: -0.384%
CC(C)(O)C(=O)N=Nc1c(O)[nH]c2ccccc12,"inconclusive: 35.5 µM [inhibitor, single point]",
COC(=O)c1sccc1NC(=S)Nc1cc(C)cc(C)c1,active: 4.47 µM,
CC(=O)NC(CC(=O)NCc1ccncc1)c1ccccc1 (stereo unspecified),"inconclusive: 22.4 µM [inhibitor, single point]",
COc1cc2c(cc1NC(=O)CSc1nc3ccc(C)cc3[nH]1)oc1ccccc12,"inconclusive: 17.8 µM [inhibitor, single point]",
CC(C)CNC(=S)NC(=O)c1csc([N+](=O)[O-])c1,"inconclusive: 35.5 µM [inhibitor, single point]",
O=C(N/N=C\C=C\c1ccco1)c1cc(-c2ccc3ccccc3c2)n[nH]1,active: 1 µM,
COc1cccc(/C=N/n2c(C3CCCCC3)n[nH]c2=S)c1O,active: 12.6 µM,
Cc1ccc(C(=O)Nc2cccc(C(F)(F)F)c2)cc1NC(=O)c1csc(-c2ccncc2)n1,,inactive: 1.58%
Cc1ccc2cc(CN(CC3CCCO3)C(=O)NC3CCCCC3)c(=O)[nH]c2c1C (stereo unspecified),"inconclusive: 22.4 µM [inhibitor, single point]",
O=C(Cc1cccc2ccccc12)NNC(=O)Nc1cccc(Cl)c1,"inconclusive: 35.5 µM [inhibitor, single point]",
CCC(Oc1ccccc1)C(=O)N1CC(C)CC(C)C1 (stereo unspecified),,inactive: -4.68%
Cc1ccc(-c2noc(N=O)c2NO)cc1,active: 0.631 µM,
O=C1C(C2=NC(C(=O)O)C3C(=O)N(c4ccc(Cl)cc4)C(=O)C23)=C(O)c2ccccc21 (stereo unspecified),"inconclusive: 17.8 µM [inhibitor, single point]",
COc1ccc(C(=O)C2CCCN(C(=O)c3cccnc3OC)C2)c(C)c1 (stereo unspecified),,inactive: -5.26%
CCOc1cc(/C=N/NC(=O)c2cccs2)cc([N+](=O)[O-])c1O,"inconclusive: 3.98 µM [activator, full curve]",
CC(=O)Nc1ccc(NC(=O)CSCCc2ccccn2)cc1,"inconclusive: 35.5 µM [inhibitor, single point]",
COc1ccc(NC(=O)CN2CCN(C3c4ccccc4-c4ccccc43)CC2)c(OC)c1,"inconclusive: 20 µM [inhibitor, single point]",
COc1cc(OC)cc(-c2nnc(NC(=O)c3ccc4c(c3)OCCO4)o2)c1,active: 0.631 µM,
CC(C)(C)/C(O)=C(/C#N)c1nc2ccccc2[nH]1,"inconclusive: 35.5 µM [inhibitor, single point]",
CCCCN(CCCC)C(=S)N/N=C/c1c(C)[nH]n(-c2ccccc2)c1=O,active: 5.01 µM,

Compound,Potency,"activity, negative = inhibition"
CC(=NC(C)C)C1=C(O)C(C)OC1=O (stereo unspecified),,inactive: -1.14%
Cc1cc2ccccn2c1C(=O)c1ccc([N+](=O)[O-])o1,"inconclusive: 35.5 µM [inhibitor, single point]",
O=C(/C=C/c1ccc(O)c(O)c1)OCCc1ccccc1,active: 10 µM,
COc1cccc(Cn2c(=O)c(-c3cccs3)nc3cnc(Nc4ccccc4)nc32)c1,,inactive: -1.88%
COC(=O)c1ccc(-n2c(C)cc(C(=O)COC(=O)CNS(=O)(=O)c3ccc(C)cc3)c2C)cc1,"inconclusive: 5.62 µM [activator, single point]",
O=C(CCC(=O)Nc1ccccc1)N/N=C/c1ccncc1,"inconclusive: 12.6 µM [inhibitor, partial curve, poor fit]",
Cc1cc(C(=O)CCl)c(C)n1-c1cccc([N+](=O)[O-])c1,"inconclusive: 35.5 µM [inhibitor, single point]",
COc1cc2c(cc1OC)CN(Cc1cc(OC)c(O)c(OC)c1)CC2,,inactive: -17.8%
Cc1cccc(OCCCCc2c(C)n[nH]c2C)c1C,"inconclusive: 22.4 µM [inhibitor, single point]",
Cc1cc(NS(=O)(=O)c2ccc(NC(=S)Nc3ccc(Cl)cc3C)cc2)no1,"inconclusive: 31.6 µM [inhibitor, single point]",
O=c1[nH]c2ccc(Cl)cc2c(-c2ccccc2)c1N1CCN(c2ccccn2)CC1,,inactive: 0.587%
Cc1ccc(NC(=O)CSc2nnc(C)c(=O)n2N)c(C)c1,"inconclusive: 0.562 µM [inhibitor, partial curve, poor fit]",
N=C1SCC(=O)N1/N=C/c1ccccc1,"inconclusive: 6.31 µM [activator, single point]",
CC(=O)c1cc(F)c(N2CCN(C(=O)COc3ccc(F)cc3)CC2)cc1C,"inconclusive: 35.5 µM [inhibitor, single point]",
COc1ccc(-c2c[n+]3c(n2-c2ccccc2)SCC3)cc1,,inactive: -16.1%
CCOC(=O)c1sc(NC(=S)NC(=O)c2ccc(OC)cc2)nc1C,active: 5.01 µM,
COc1ccc2[nH]c(=O)c(C(c3nnnn3C3CCCC3)N3CCN(Cc4ccc5c(c4)OCO5)CC3)cc2c1 (stereo unspecified),,inactive: -5.01%
CC(=O)Nc1cccc(OCc2c(F)cccc2Cl)c1,"inconclusive: 35.5 µM [activator, single point]",
Cc1ccc(CN2CCN(Cc3nc(C(C)C)cs3)CC2CCO)cc1 (stereo unspecified),"inconclusive: 35.5 µM [inhibitor, single point]",
COc1ccccc1NS(=O)(=O)c1cc([N+](=O)[O-])ccc1N/N=C/c1sc(N2CCOCC2)nc1-c1ccccc1,,inactive: -0.0348%
CCOc1cccc(C(=O)NC(=S)Nc2ccccc2)c1,"inconclusive: 31.6 µM [inhibitor, single point]",
Cc1ccc(NC(=O)CSc2ncnc3ccccc23)cc1S(=O)(=O)N1CCOCC1,,inactive: -11.8%
O=C(Nc1nnc(-c2ccc3c(c2)OCCO3)o1)C1CCCCC1,"inconclusive: 12.6 µM [activator, single point]",
NNc1nncc2ccccc12,"inconclusive: 14.1 µM [inhibitor, single point] and inconclusive: 20 µM [inhibitor, single point]",
COC(=O)[C@@H]1C[C@H]1[C@@H](NC(C)=O)c1ccccc1,,inactive: -5.7%
COc1ccc(NC(=O)CSCc2ccc(C)cc2)cc1,,inactive: 9.22%

Compound,Potency,"activity, negative = inhibition"
COC(=O)C1=C(O)/C(=C\c2cc(C)n(-c3ccccc3C)c2C)N=C1C,"inconclusive: 0.794 µM [inhibitor, single point]",
Cc1ccc(OCCSc2cc(C)nc(N)n2)cc1,"inconclusive: 22.4 µM [activator, single point]",
S=C(NCc1ccccn1)Nc1ccc(Cl)c(Cl)c1,active: 5.01 µM,
COc1ccc(OC)c(NC(=O)CC2Oc3ccccc3NC2=O)c1 (stereo unspecified),,inactive: -12.7%
CCCCNC(=S)Nc1ccc2nc(N3CCN(CC)CC3)cc(C)c2c1,,inactive: -12.4%
Cc1nnc(SCC(=O)Nc2sc3c(c2C#N)CCCCC3)n1N,"inconclusive: 4.47 µM [inhibitor, single point]",
O=C(NC(=S)NCCN1CCOCC1)c1ccc(Cl)cc1,"inconclusive: 31.6 µM [inhibitor, single point]",
CCOc1ccc2[nH]c3c(NCCC(C)C)ncnc3c2c1,active: 4.47 µM,
S=C(Nc1ccccc1)Nc1ccc(Br)cn1,active: 5.62 µM,
Cc1ccc(Nc2c3c(nc4ncnn24)CC(C)CC3)cc1 (stereo unspecified),"inconclusive: 35.5 µM [inhibitor, single point]",
O=C(OCC(=O)N1CCCc2ccccc21)c1cncc(Br)c1,active: 1.12 µM,
CN(C)c1ccc(C(=O)Nc2nnc(C3=COCCO3)o2)cc1,active: 2.82 µM,
Oc1ccc(Br)cc1/C=N/NC(=S)NCCc1ccccc1,active: 15.8 µM,
COc1cccc(C(=O)CSc2nc3cccnc3n2C)c1,"inconclusive: 35.5 µM [inhibitor, single point]",
CC(C)C(=O)Nc1ccc(NC(=O)c2ccccn2)cn1,"inconclusive: 20 µM [inhibitor, single point]",
CCOc1ccc2nc(N3C(=O)CNC3=S)sc2c1,active: 2.82 µM,
COc1ccc(S(=O)(=O)N(Cc2ccccc2)Cc2nc3ccccc3c(=O)[nH]2)cc1,active: 11.2 µM,
O=C(/C=C/c1cn(-c2ccccc2)nc1-c1ccc2c(c1)OCCO2)NCCO,"inconclusive: 35.5 µM [inhibitor, single point]",
CC[C@H]1C(c2ccc(F)cc2)=NN(c2ccccc2)[C@@H]1CO,"inconclusive: 50.1 µM [inhibitor, single point]",
CCc1nnc(NC(=O)/C=C/c2ccco2)s1,"inconclusive: 1.12 µM [activator, partial curve]",
CCCCOc1ccc(-c2ncc(C(=O)O)c(C)n2)cc1,"inconclusive: 1.26 µM [inhibitor, full curve, poor fit]",
COc1ccc(CCNC(=O)C2CCN(C(=O)c3ccc(C(C)(C)C)cc3)CC2)cc1,"inconclusive: 15.8 µM [inhibitor, single point]",
CS(=O)(=O)c1ncc(Cl)c(C(=O)Nc2ccc(N3CCOCC3)cc2)n1,active: 3.16 µM,
CC1CC=CC2C1C(=O)N(Cc1ccccc1)C2c1ccc2ccccc2c1Br (stereo unspecified),active: 22.4 µM,
